The experiment has as its target T1, YTHDF3-MTbind-Flag (L455M/L461V/V482A/A487T/Y488C/E502D/K504R) (UniProt Q7Z739).
T1 sequence: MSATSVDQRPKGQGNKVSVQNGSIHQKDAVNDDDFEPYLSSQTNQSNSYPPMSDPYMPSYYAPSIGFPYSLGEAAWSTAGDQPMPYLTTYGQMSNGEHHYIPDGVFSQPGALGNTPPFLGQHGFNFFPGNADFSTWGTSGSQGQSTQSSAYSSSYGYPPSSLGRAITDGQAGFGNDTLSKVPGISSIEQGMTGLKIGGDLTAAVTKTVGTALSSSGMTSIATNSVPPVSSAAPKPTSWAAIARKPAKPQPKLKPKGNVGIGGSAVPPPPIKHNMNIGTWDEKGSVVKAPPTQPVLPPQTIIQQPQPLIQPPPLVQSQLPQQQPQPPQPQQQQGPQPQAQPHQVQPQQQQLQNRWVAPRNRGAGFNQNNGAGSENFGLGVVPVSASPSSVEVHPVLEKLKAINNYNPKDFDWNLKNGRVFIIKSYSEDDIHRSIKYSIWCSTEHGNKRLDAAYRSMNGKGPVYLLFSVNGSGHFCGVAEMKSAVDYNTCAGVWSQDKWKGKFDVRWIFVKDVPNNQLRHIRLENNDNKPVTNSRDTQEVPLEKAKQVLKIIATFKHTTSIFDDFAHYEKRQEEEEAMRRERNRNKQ
The experiment is described as follows: co-IP; anti-FLAG or anti-HA antibodies and protein A/G agarose beads; transfected cells (HeLa in Fig. 4A); western blot.

These are yes or no findings as the source states them, for the method shown. In cells and extracts the contact can be indirect. Where a sequence is shown, tags or fusion partners need not be part of it.

B1: ALKBH1 (endogenous) (enzyme, UniProt Q13686 1-389)
chain: MGKMAAAVGSVATLATEPGEDAFRKLFRFYRQSRPGTADLEGVIDFSAAHAARGKGPGAQKVIKSQLNVSSVSEQNAYRAGLQPVSKWQAYGLKGYPGFIFIPNPFLPGYQWHWVKQCLKLYSQKPNVCNLDKHMSKEETQDLWEQSKEFLRYKEATKRRPRSLLEKLRWVTVGYHYNWDSKKYSADHYTPFPSDLGFLSEQVAAACGFEDFRAEAGILNYYRLDSTLGIHVDRSELDHSKPLLSFSFGQSAIFLLGGLQRDEAPTAMFMHSGDIMIMSGFSRLLNHAVPRVLPNPEGEGLPHCLEAPLPAVLPRDSMVEPCSMEDWQVCASYLKTARVNMTVRQVLATDQNFPLEPIEDEKRDISTEGFCHLDDQNSEVKRARINPDS
Turning to B1, the binding result was “no binding”.

Values taken from PMC12402098, “YTHDF3 recognizes DNA N6-methyladenine and recruits ALKBH1 for 6mA removal from genomic DNA” (The EMBO Journal, 2025).
